# Experimental data taken from the supplement of paper PMC8821664.
# Where a name gives a salt, the structure may show the parent alone. The list shows a part of the results. Repeats are few or missing, and single values can be far off.
# Tested on: Beas-2B AQP5-HiBiT reporter cells
# Experiment: AQP5-HiBiT luminescence relative to vehicle (ratio to vehicle); higher = higher AQP5-HiBiT protein abundance
# Settings: 10 µM; 18 h
# 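Note: monoclonal Beas-2B line stably carrying CMV promoter-driven AQP5-HiBiT, 5,000 cells per well in 384-well plates, lytic HiBiT plus LgBiT NanoLuc luminescence, FDA-approved drug library screen.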
row,Structure (SMILES),AQP5-HiBiT luminescence
1,Cc1[nH]cnc1CN1CCc2c(c3ccccc3n2C)C1=O [Alosetron hydrochloride],1.02
2,Nc1nc(=O)n([C@@H]2CS[C@H](CO)O2)cc1F [Emtricitabine],0.851
3,O=C1CCc2ccc(OCCCCN3CCN(c4cccc(Cl)c4Cl)CC3)cc2N1 [Aripiprazole],2.43
4,CC1COc2c(N3CCN(C)CC3)c(F)cc3c(=O)c(C(=O)O)cn1c23 (centres undefined) [Ofloxacin],0.881
5,CN1[C@@H]2CC[C@H]1C[C@@H](OC(c1ccccc1)c1ccccc1)C2 [Benztropine mesylate],1.08
6,CCCc1nn(C)c2c(=O)[nH]c(-c3cc(S(=O)(=O)N4CCN(C)CC4)ccc3OCC)nc12 [Sildenafil],1.3
7,Nc1nc(Cl)nc2c1ncn2[C@H]1C[C@H](O)[C@@H](CO)O1 [Cladribine],0.477
8,COc1ncnc(NS(=O)(=O)c2ccc(N)cc2)c1OC [Sulfadoxine],1.05
9,N[C@H](C(=O)O)[C@H](O)c1ccc(O)c(O)c1 [Droxidopa],1.04
10,COCCc1ccc(OCC(O)CNC(C)C)cc1 (centres undefined) [Metoprolol tartrate],1.96
11,O=C1Cc2cc(CCN3CCN(c4nsc5ccccc45)CC3)c(Cl)cc2N1 [Ziprasidone hydrochloride],1.23
12,O=C(O)c1cc(=O)c2c(OCC(O)COc3cccc4oc(C(=O)O)cc(=O)c34)cccc2o1 [Sodium cromoglycate],0.802
13,NC(=O)c1cccnc1 [Nicotinamide],0.652
14,CN1CCN(C(c2ccccc2)c2ccccc2)CC1 [Cyclizine 2hydrochloride],1.03
